From the supplement of paper PMC10126150 come the findings set out here.

The test system of the data set is ATP. As to the kind of experiment: switch fluorescence ratio, 500 uM ATP over buffer (Cy3 cluster intensity, sum of 5 cycles each) (fold (ratio)); higher = stronger signal-on switching upon ATP binding; sequences stand for … in TCGTCGGCAGCGTCAGATGTGTATAAGAGACAGTTTTTTTTTTTTTTTTTTTTTTTTT…TC. To be noted: aptamer strand: ATP DNA aptamer (quencher-CACCTGGGGGAGTATTGCGGAGGAAGG + anchor), 100 nM annealed; ATP concentration: 500 uM; one replicate. Put shortly:
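Per cluster, summed Cy3 intensity from the target cycles was divided by that from the buffer cycles to give the fluorescence ratio, then averaged per switch-domain sequence. Clusters outside 100-1000 RFU were excluded. The Cy3-labelled switching-strand clusters, on a modified Illumina MiSeq flow-cell, were annealed to 100 nM quencher-labelled ATP aptamer and imaged in selection buffer, then after 15 min with 500 uM ATP at 22 °C, for five cycles with NaOH stripping and re-annealing between them.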

Values marked as one replicate rest on one cluster of the flow cell; about a third of the high ones do not repeat.
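Note: ATP exposure 15 min at 22 °C before imaging.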

For the sequence CATGGATTAG, the switch fluorescence ratio was determined as 1.03. In the case of CACGGGACGA, the switch fluorescence ratio came out at 1.05. Turning to GTGTCAGTTT, the switch fluorescence ratio amounted to 1.01.

For GGATCTCTTG, the switch fluorescence ratio was found to be 0.986. Then ACAGTAAATT, with 1.03. On to TAAGACATCT, for which the switch fluorescence ratio was 0.975. In the case of GGATCACCAG, the switch fluorescence ratio was 1.04.

GCGGGGTGGT: the switch fluorescence ratio amounted to 1.03. TTGTAGTGAG: the switch fluorescence ratio is 1.

With CGATCAATTT, the switch fluorescence ratio was found to be 1.01. Regarding TGTCATTTGG, the switch fluorescence ratio stood at 0.967. On to GACTCGCAGG, for which the switch fluorescence ratio came out at 1.06. With TATTATATC, the switch fluorescence ratio worked out at 0.932. Consider TTAAGACAAG, for which the switch fluorescence ratio is 1.02.

As to TGTAAGATA, the switch fluorescence ratio is 1. AGGCATGCAT: the switch fluorescence ratio worked out at 0.968. Then TGCCTACTTC, with 0.978; and CTTTAACACT, with 1.09.

As to TCTAAAAATA, the switch fluorescence ratio was 0.967. Consider GGGTTATATA, for which the switch fluorescence ratio is 0.977. Consider TGCCCATGG, for which the switch fluorescence ratio is 1.03. Turning to ACGCACTAGG, the switch fluorescence ratio stood at 1.47. Then GCGCTTTATC, with 1.37; and TGCCGTCTGG, with 0.989. For the sequence CCTAATGCCT, the switch fluorescence ratio is 1.09.

On to GAGGAGCTTT, for which the switch fluorescence ratio is 0.958. As to CGTATTTTGA, the switch fluorescence ratio is 0.969. To TAGAATACTA belongs 1.06; to GGGCGGATAT, 1; to TGCATTTTAG, 1.01. As for ATACTGCCGG, the switch fluorescence ratio stood at 0.989. On to GCTAGAAATA, for which the switch fluorescence ratio amounted to 0.98. TCCTCGCGAA: the switch fluorescence ratio came to 4.8. Then ATGCGTTTCG, with 0.991. For CATCAGGCGA, the switch fluorescence ratio amounted to 1.47. To AAGGGACCC belongs 1. With CAATACCTAA, the switch fluorescence ratio is 1.03. To GGTTAAGTCC belongs 1.07.

With TTTTCGGGCC, the switch fluorescence ratio was 1.02.

On to CCTATCCACA, for which the switch fluorescence ratio came to 1.08.

TCGCCGTTGT: the switch fluorescence ratio stood at 1.04. Turning to AACACGCCGG, the switch fluorescence ratio came out at 1.07. As to GCATGCGTTT, the switch fluorescence ratio was determined as 0.996. Consider AGGACGATTT, for which the switch fluorescence ratio is 1.03. Consider CCCTTACACC, for which the switch fluorescence ratio was found to be 1.22. For CAAATGGCGC, the switch fluorescence ratio is 1.

As for TTTTTCGCAT, the switch fluorescence ratio stood at 2.18. To TAGGGCTTGT belongs 0.977; to TTTCGAAGTT, 1.04; to ATTATAACGG, 0.997. Consider CATATTGTAC, for which the switch fluorescence ratio amounted to 0.978. To CGGGCTGCAG belongs 0.947; to CCCAATCTCG, 1.9; to CATTCCCAAC, 1.22. CGGTACAGTC: the switch fluorescence ratio turned out to be 1.06. Take CTGGCCGCCA: the switch fluorescence ratio was 1.08.

Consider GATCGTGGTC, for which the switch fluorescence ratio is 0.989. With CAGGCTAAGC, the switch fluorescence ratio worked out at 1.01. For the sequence ATTTGTAGGA, the switch fluorescence ratio amounted to 0.953.

Take GCTTCGGATA: the switch fluorescence ratio was 1.18. Consider GTAAATTCAT, for which the switch fluorescence ratio was 0.978.

Consider TGGCGCTG, for which the switch fluorescence ratio came to 0.994. To AGCACCTTTT belongs 0.994; to CAAATGGTCG, 1.03; to GTGTGGCAAA, 1.62. Then AGAATGACCC, with 1.06; and TCGAACATGC, with 1.22.
